# Measured values taken from paper PMC4336329 (PLoS ONE, 2015).
# The whole screen tested about 310,000 compounds, of which about 2,200 (0.71%) showed an effect of 50% or more. Effects have a minus sign here. The list shows a part of the results.
# Target: human ether-à-go-go-related gene (hERG) potassium channel (human, UniProt Q12809)
# Experiment: primary screen, population patch clamp on CHO cells stably expressing hERG
# human ether-à-go-go-related gene (hERG) potassium channel, sequence (Q12809 whole entry, looked up): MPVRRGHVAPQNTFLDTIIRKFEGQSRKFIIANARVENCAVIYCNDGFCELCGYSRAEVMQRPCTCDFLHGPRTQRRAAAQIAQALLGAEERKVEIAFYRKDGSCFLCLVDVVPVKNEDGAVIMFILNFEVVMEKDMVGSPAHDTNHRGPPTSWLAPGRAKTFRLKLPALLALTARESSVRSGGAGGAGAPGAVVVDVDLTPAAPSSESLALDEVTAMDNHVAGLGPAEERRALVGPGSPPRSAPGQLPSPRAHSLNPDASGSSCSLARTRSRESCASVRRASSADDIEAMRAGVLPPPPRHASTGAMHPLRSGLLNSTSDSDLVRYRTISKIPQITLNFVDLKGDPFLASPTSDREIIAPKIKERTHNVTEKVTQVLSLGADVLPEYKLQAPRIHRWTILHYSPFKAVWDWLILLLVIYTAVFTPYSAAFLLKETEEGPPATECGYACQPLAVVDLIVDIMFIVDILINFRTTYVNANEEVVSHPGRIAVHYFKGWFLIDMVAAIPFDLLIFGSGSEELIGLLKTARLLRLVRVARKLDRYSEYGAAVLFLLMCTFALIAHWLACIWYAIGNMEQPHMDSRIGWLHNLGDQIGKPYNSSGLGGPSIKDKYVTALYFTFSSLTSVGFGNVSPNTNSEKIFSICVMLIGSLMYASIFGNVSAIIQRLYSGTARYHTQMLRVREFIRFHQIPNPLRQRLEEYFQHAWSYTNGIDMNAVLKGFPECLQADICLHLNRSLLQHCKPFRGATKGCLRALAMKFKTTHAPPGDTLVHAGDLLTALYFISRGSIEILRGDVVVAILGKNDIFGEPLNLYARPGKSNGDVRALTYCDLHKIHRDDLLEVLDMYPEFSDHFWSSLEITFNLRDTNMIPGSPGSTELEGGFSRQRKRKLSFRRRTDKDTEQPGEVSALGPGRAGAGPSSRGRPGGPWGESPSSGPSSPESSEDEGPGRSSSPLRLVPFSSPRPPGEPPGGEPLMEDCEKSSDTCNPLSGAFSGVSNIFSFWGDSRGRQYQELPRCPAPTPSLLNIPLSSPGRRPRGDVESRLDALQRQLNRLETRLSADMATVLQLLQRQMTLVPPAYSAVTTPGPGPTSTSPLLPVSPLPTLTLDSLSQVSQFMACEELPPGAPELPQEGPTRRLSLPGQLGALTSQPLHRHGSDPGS
row,Structure (SMILES),"hERG current change (%, negative = inhibition) at 1uM [%]"
1,CCOc1ccc(C2Oc3nc(SC)nnc3-c3ccccc3N2C(C)=O)cc1OC (stereo not shown),11.4
2,O=C(Nc1ccccc1)N(Cc1ccc2c(c1)OCO2)Cc1nc2ccccc2c(=O)[nH]1,3.08
3,CCOC(=O)c1c(C)[nH]c(C)c1C(=O)CSc1nc2ccccc2c(=O)n1-c1ccc(Cl)cc1,9.38
4,COc1cc(NC(=O)Cn2cnc(S(=O)(=O)N3CCOCC3)c2)cc(OC)c1OC,11.1
5,CSCCC(NS(=O)(=O)c1ccccc1)C(=O)OCc1nc2ccsc2c(=O)[nH]1 (stereo not shown),1.15
6,OC(COc1ccc(OCc2ccccc2)cc1)CN1CCOCC1 (stereo not shown),-12.3
7,CCc1ccc(NC(=O)C2CCN(S(=O)(=O)c3cnc[nH]3)CC2)cc1,18.5
8,Cc1noc(NS(=O)(=O)c2ccc(NC(=O)CCC3CCCCC3)cc2)c1C,10.1
9,O=[N+]([O-])c1cc(Cl)ccc1N1CCN(c2ccccc2O)CC1,12.2
10,Cc1ccc(SC(=O)c2c(C)noc2-c2cc(C)on2)cc1,10.7
11,Cc1ccc2oc(-c3ccc(C)c(NC(=O)Cc4cccs4)c3)nc2c1,0.0124
12,Cc1cc(O)c(C(C)C)cc1N=C1CSC(=O)N1,11
13,COC(=O)c1sc(-c2ccc(C(C)(C)C)cc2)cc1NC(=O)COCC(=O)O,10.3
14,O=C(CN1C(=O)C2CC=C(Cl)CC2C1=O)N1CCOCC1 (stereo not shown),-3.82
15,CCOC(=O)c1ccccc1NC(=O)c1ccccc1NS(C)(=O)=O,2.08
16,CC1=C(C(=O)OCc2ccccc2)C(c2ccco2)C2=C(CC(C)(C)CC2=O)N1 (stereo not shown),3.17
17,C#CCN1C(=O)C(O)(CC(=O)c2cccc(OC)c2)c2ccccc21 (stereo not shown),10.3
18,COc1cccc2c(=O)ccoc12,6.57
19,CC(C)Oc1c(N2CCOCC2)c(=O)c1=O,15.1
20,CC(Oc1cccc(Cl)c1)C(=O)Nc1ccc(N2CCOCC2)cc1N1CCOCC1 (stereo not shown),5.26
21,Nc1cccnc1Sc1cc(Cl)cc(Cl)c1,4.33
22,CC12CCC(C(=O)NNc3ccccc3)(OC1=O)C2(C)C (stereo not shown),12.2

row,Structure (SMILES),"hERG current change (%, negative = inhibition) at 1uM [%]"
1,Cc1nnc(NC(=O)C2CCCC2)s1,13.3
2,Cc1ccccc1OCCn1nc(C(=O)O)c2ccccc2c1=O,9.14
3,CCOc1cccc2sc(N(CCN(CC)CC)C(=O)c3cccc(N4C(=O)CCC4=O)c3)nc12.Cl,-45.6
4,Cc1cn2c(nc1=O)OC1C(O)C(COC(=O)c3ccccc3)OC12 (stereo not shown),14.8
5,COc1ccccc1CCn1cc(C#N)c(=O)[nH]c1=O,15.2
6,COc1cccc(-n2c(N)cc(=O)nc2SCC(=O)N2CCN(c3ccccc3)CC2)c1,6.58
7,NC(=O)c1nsc(C(=O)N(CC(=O)NC2CCCC2)c2ccc(F)c(Cl)c2)c1N,10.4
8,Cc1ccc(C2(c3noc(CN4CCOCC4)n3)CCCC2)cc1,6.75
9,COc1ccc(C(=S)N2CCOCC2)cc1OC(=O)c1ccc([N+](=O)[O-])cc1,5.41
10,CCN(c1ccccc1)S(=O)(=O)c1ccc(Cl)c(NC(=O)CN2C(=O)NC3(CCCC3)C2=O)c1,11.8
11,Cc1ccc(-n2nc3c(c2NC(=O)C2CCCC2)CS(=O)(=O)C3)cc1,13.5
12,Cn1c(O)c(C(=NCCN2CCCCC2)c2ccccc2Cl)c(=O)n(C)c1=O,8.15
13,O=C(c1ccc(COc2ccccc2Cl)o1)N1CCOCC1,4.23
14,Brc1ccc(-c2nnc3n2C2(CCCC2)Cc2ccccc2-3)o1,0.695
15,CC(C)(C)n1nnnc1C(c1cccs1)N1CCCc2ccccc21 (stereo not shown),-1.04
16,CCOc1ccc2oc(C(=O)N(C)CCc3ccc(OC)c(OC)c3)c(C)c2c1,4.82
17,CCCCN(C(=O)/C=C/c1ccco1)c1c(N)n(Cc2ccccc2)c(=O)[nH]c1=O,7.19
18,Cc1cc(S(=O)(=O)NCC(C)C)ccc1OCC(=O)NCc1ccco1,-35.8
19,O=C(/C=C/c1ccccc1)NC(=S)NNC(=O)c1cccnc1,17.6
20,CCN(C(=O)COC(=O)c1ccc(Cl)nc1)C1CCS(=O)(=O)C1 (stereo not shown),12.1
21,Cc1ccc(NC(=S)Nc2ccc(Cl)c(Cl)c2)c(OC(F)F)c1,13.8
22,O=C(Nc1cccc(/C=C/c2ccccn2)c1)c1cc(Cl)ccn1,8.27

row,Structure (SMILES),"hERG current change (%, negative = inhibition) at 1uM [%]"
1,CC(=O)Nc1ccc(NC(=O)CSc2ncnc3c2cnn3Cc2ccccc2)cc1,6.3
2,O=C(OCc1cccc(Cl)c1)c1cc([N+](=O)[O-])ccc1N1CCOCC1,-5.04
3,COc1ccc(C2C(C(N)=O)=C(C)Nc3nc(-c4ccccc4)nn32)cc1OC (stereo not shown),12.1
4,CC12CN3CCN(C1)CC(C)(C3)C2=NN,9.74
5,CN(c1ccccc1)S(=O)(=O)c1ccc2c(c1)oc(=O)n2C,13.3
6,O=C(COc1cccc2c1CCN(Cc1ccc(Cl)cc1)C2=O)N1CCOCC1,-19.8
7,COCCN(C(=O)COC(=O)CCc1nc2ccccc2s1)c1c(N)n(Cc2ccccc2)c(=O)[nH]c1=O,9.84
8,Cc1cc(S(=O)(=O)NCc2ccco2)c(C)cc1Cl,6.89
9,CC(CCC(=O)Nc1nncs1)C(=O)O (stereo not shown),3.35
10,C=CCNC(=O)C1CC(=O)N(c2ccc(OCC(=O)Nc3ccccc3)cc2)C1 (stereo not shown),4.97
11,Cc1ccc(-n2c3nc(=O)[nH]c(=O)c-3cc3cc([N+](=O)[O-])ccc32)cc1C,-1.18
12,COc1cc(NS(=O)(=O)c2ccc(NC(=O)COc3ccc(C)cc3C)cc2)nc(OC)n1,-1.76
13,Cc1cccc(NC(=O)CCc2nc3sc4c(c3c(=O)[nH]2)CCCC4)n1,1.39
14,Cc1nnc(N2C(=O)c3cccc4c([N+](=O)[O-])ccc(c34)C2=O)s1,9.77
15,CC1CN(C(=O)CCC(=O)NCc2ccccc2Cl)c2ccccc2S1 (stereo not shown),8.92
16,CC(C)P(=O)(Cc1cccc(C#N)c1)C(C)C,12
17,CC(C)OC(=O)CSc1nc(-c2ccc(F)cc2)cc(C(F)(F)F)n1,16.3
18,O=C(CCc1ccc(S(=O)(=O)N2CCOCC2)cc1)NN=C1CCCCCCC1,10.4
19,Cc1ccc(S(=O)(=O)NNC(=O)CCC(=O)Nc2ccc(C)c(C)c2)cc1,7.38
20,O=c1[nH]c(=S)n(C2CC2)c(O)c1C=Nc1cccc(C(F)(F)F)c1,16.3
21,CNC(=S)N1CCC(NC(=O)c2ccco2)CC1,5.49
22,Cc1nnsc1S(=O)(=O)Cc1ccccc1C(F)(F)F,10.8

row,Structure (SMILES),"hERG current change (%, negative = inhibition) at 1uM [%]"
1,CC1(C)CC(=O)C/C(=N/NC(=O)C2CCN(S(=O)(=O)c3cccs3)CC2)C1,10.9
2,CCOC(=O)c1sc2nc(C)nc(SC(C)C(=O)NC3CC3)c2c1C (stereo not shown),9.55
3,COc1cccc(C2CC(c3ccc(C)cc3)=NN2C(=O)c2ccccc2F)c1OC (stereo not shown),13.8
4,C=CCSc1ncnc2sc(C)c(C)c12,10.5
5,CS(=O)(=O)c1ccc(N)cc1,13.1
6,O=C(Nc1nccs1)c1ccc2c(c1)OCO2,11.2
7,Cn1nnnc1SCC(=O)N1CCN(C(c2ccccc2)c2ccccc2)CC1,7.08
8,O=C(Nc1nnc(-c2ccc3c(c2)CCCC3)o1)c1ccccc1Cl,11
9,CCOP(=O)(OCC)c1cccc(OP(=O)(c2cccc([N+](=O)[O-])c2)c2cccc([N+](=O)[O-])c2)c1,12.6
10,Cc1ccc(NC(=S)NN2CCOCC2)c(C)c1,7.15
11,COc1cc(-c2noc(C)c2-c2ccc(N(C)C)nc2)cc(OC)c1OC,5.55
12,COc1ccc(C=Nc2cccnc2N)cc1,15.2
13,COc1ccc([N+](=O)[O-])cc1NC(=O)COC(C)=O,14.2
14,CSc1ccc(C(=O)C2CCCN(C(=O)CCc3c(C)nn(C)c3C)C2)cc1 (stereo not shown),14.1
15,COc1ccc(CNC(=O)COc2ccc(F)cc2)cc1,-0.435
16,NS(=O)(=O)c1ccc(CCNC(=O)c2cncc(Br)c2)cc1,5.28
17,CCOc1ccc(/C=C(/NC(=O)c2ccccc2Cl)C(=O)O)cc1,6.12
18,Cc1ccc(CN2CC(C(=O)N3CCN(S(=O)(=O)c4ccc(C)cc4C)CC3)CC2=O)cc1 (stereo not shown),10.7
19,COc1ccc(-c2cc(C(=O)N(C)CC(=O)Nc3ccccc3Br)c3ccccc3n2)cc1OC,6.65
20,C/C(=N\NC(=O)COc1ccc(C(C)(C)C)cc1)c1ccc(OC(F)F)cc1,10.9
21,O=C(Nc1nnc(-c2ccccc2)s1)c1cccc(S(=O)(=O)N2CCOCC2)c1,10.3
22,CC(C)Cc1cc(C(=O)N2CCC(N3CCC(C(=O)NC4CC4)CC3)CC2)n[nH]1,12.5
